Some of the results follow.
B1: PhoQ; a variant is named by its letters at X, in order, P23837 (parent)
chain: MKKLLRLFFPLSLRVRFLLATAAVVLVLSLAYGMVALIGYSVSFDKTTFRLLRGESNLFYTLAKWENNKLHVELPENIDKQSPTMTLIYDENGQLLWAQRDVPWLMKMIQPDWLKSNGFHEIEADVNDTSLLLSGDHSIQQQLQEVREDDDDAEMTHSVAVNVYPATSRMPKLTIVVVDTIPVELKSSYMVWSWFIYVLSANLLLVIPLLWVAAWWSLRPIEALAKEVRELEEHNRELLNPATTRELTSLVRNLNRLLKSERERYDKYRTTLTDLTHSLKTPLXXLQXXLRSLRSEKMSVSDAEPVMLEQISRISQQIGYYLHRASMRGGTLLSRELHPVAPLLDNLTSALNKVYQRKGVNISLDISPEISFVGEQNDFVEVMGNVLDNACKYCLEFVEISARQTDEHLYIVVEDDGPGIPLSKREVIFDRGQRVDTLRPGQGVGLAVAREITEQYEGKIVAGESMLGGARMEVIFGRQHSAPKDE

Variants of: B1
Assay: enrichment ratio after two sorts for PhoP signalling (ratio (wild type AVST 3.29)); higher = more functional
Settings: with PhoP (E. coli)

Variant | enrichment ratio
VYMT | ≤ 0.25
PNHK | ≤ 0.25
GTLC | 10
MIRC | ≤ 0.25
ESWC | ≤ 0.25
QLRD | ≤ 0.25
PKHY | ≤ 0.25
FSLH | 3.46
RQAV | ≤ 0.25
AFFC | ≤ 0.25
WFRM | ≤ 0.25
KDMS | ≤ 0.25
KNPV | ≤ 0.25
CRAL | ≤ 0.25
KPWS | ≤ 0.25
QHSF | ≤ 0.25
TCEK | ≤ 0.25
LSGE | ≤ 0.25
SRMS | ≤ 0.25
EGGP | ≤ 0.25
NYYF | ≤ 0.25
MCRL | ≤ 0.25
SQIT | 0.672
LMQC | ≤ 0.25

Variant | enrichment ratio
GQNT | ≤ 0.25
HSVM | 9.67
TLFT | ≤ 0.25
ALWG | ≤ 0.25
PNFG | ≤ 0.25
KVAP | ≤ 0.25
AEHR | ≤ 0.25
LQFY | 1.39
FTNP | ≤ 0.25
DCSN | ≤ 0.25
KDQT | ≤ 0.25
KSKG | ≤ 0.25
GLID | ≤ 0.25
WSSR | 0.679
QVAT | ≤ 0.25
DWAL | ≤ 0.25
IPTH | ≤ 0.25
FRYP | ≤ 0.25
SLLG | 6.8
AQFL | ≤ 0.25
THQD | ≤ 0.25
FHMN | ≤ 0.25
KDPV | ≤ 0.25
GRVM | ≤ 0.25

Variant | enrichment ratio
FDHD | ≤ 0.25
FPWW | 1.1
GFRT | ≤ 0.25
LLQK | ≤ 0.25
FHDC | ≤ 0.25
HRHI | ≤ 0.25
GFMY | ≤ 0.25
KHHF | ≤ 0.25
RGIA | ≤ 0.25
HESS | ≤ 0.25
NGNG | ≤ 0.25
GQAG | ≤ 0.25
IMLK | ≤ 0.25
YLFN | ≤ 0.25
TEDQ | ≤ 0.25
NRLH | ≤ 0.25
AQVL | 6.96
MMVC | ≤ 0.25
TPKM | ≤ 0.25
TQHP | ≤ 0.25
AVIA | ≤ 0.25
DVEE | ≤ 0.25
GQYP | ≤ 0.25
LKYA | ≤ 0.25

Variant | enrichment ratio
TSLM | 16.7
QGPS | ≤ 0.25
YFRA | ≤ 0.25
MMHH | ≤ 0.25
YAMA | ≤ 0.25
PRRG | ≤ 0.25
GLWQ | ≤ 0.25
TETA | ≤ 0.25
EYRN | ≤ 0.25
AWRM | ≤ 0.25
PNEE | ≤ 0.25
FWHN | ≤ 0.25
EHPW | ≤ 0.25
GKIG | ≤ 0.25
QTYS | 2.9
KKIF | ≤ 0.25
RVLG | ≤ 0.25
HGWP | ≤ 0.25
IGVT | ≤ 0.25
MMTN | ≤ 0.25
MDRP | ≤ 0.25
TYKC | ≤ 0.25
YRHV | ≤ 0.25
TIEN | ≤ 0.25

Variant | enrichment ratio
WWFG | ≤ 0.25
QGHS | ≤ 0.25
CSLD | ≤ 0.25
FWSY | ≤ 0.25
YYFH | ≤ 0.25
RNCC | ≤ 0.25
SRLW | ≤ 0.25
QTLD | ≤ 0.25
PYCA | ≤ 0.25
PNVD | ≤ 0.25
SPPQ | ≤ 0.25
KVGP | ≤ 0.25
DVNW | ≤ 0.25
VHRC | ≤ 0.25
LITA | ≤ 0.25
HIQF | ≤ 0.25
ETVE | ≤ 0.25
VYGC | ≤ 0.25
NMNW | ≤ 0.25
FVWS | ≤ 0.25
HPFQ | ≤ 0.25
FQCT | ≤ 0.25
ANPI | ≤ 0.25
FDGD | ≤ 0.25

Variant | enrichment ratio
SRQD | ≤ 0.25
GHMA | ≤ 0.25
IPNR | ≤ 0.25
PVKC | ≤ 0.25
LVCP | ≤ 0.25
QRNS | ≤ 0.25
HWWR | ≤ 0.25
WVYT | ≤ 0.25
HDDG | ≤ 0.25
IYNQ | ≤ 0.25
RSCK | ≤ 0.25
ICNT | ≤ 0.25
IFLP | ≤ 0.25
VERR | ≤ 0.25
QVIG | ≤ 0.25
IWWW | ≤ 0.25
VTER | ≤ 0.25
FSCG | ≤ 0.25
TYLA | 6.31
NMCS | ≤ 0.25
IQHV | ≤ 0.25
NQQY | ≤ 0.25
QRFM | ≤ 0.25
SARW | ≤ 0.25

Variant | enrichment ratio
VNCD | ≤ 0.25
AVMF | 5.91
PNMN | ≤ 0.25
FIVD | ≤ 0.25
IQKH | ≤ 0.25
PQCV | ≤ 0.25
NAHW | ≤ 0.25
HQVN | ≤ 0.25
YKFR | ≤ 0.25
RSYL | ≤ 0.25
PMQY | ≤ 0.25
KFHW | ≤ 0.25
WPDE | ≤ 0.25
PWNN | ≤ 0.25
DAMI | ≤ 0.25
QRCC | ≤ 0.25
DTMS | ≤ 0.25
KSYH | ≤ 0.25
QWAH | 2.21
NEMC | ≤ 0.25
KGTQ | ≤ 0.25
IFYN | ≤ 0.25
HGCF | ≤ 0.25
KTYC | ≤ 0.25

Variant | enrichment ratio
IMWK | ≤ 0.25
RGND | ≤ 0.25
HMHC | ≤ 0.25
KFNS | ≤ 0.25
NWWG | ≤ 0.25
VMVK | ≤ 0.25
WYVE | ≤ 0.25
ILHR | ≤ 0.25
RIEN | ≤ 0.25
ISHN | ≤ 0.25
RREM | ≤ 0.25
WCYY | ≤ 0.25
VQQL | ≤ 0.25
LAKE | ≤ 0.25
TFEG | ≤ 0.25
EHPY | ≤ 0.25
DEFP | ≤ 0.25
TRGM | ≤ 0.25
MMQL | ≤ 0.25
VYGR | ≤ 0.25
VNYE | ≤ 0.25
RDRF | ≤ 0.25
GFVG | ≤ 0.25
PNEI | ≤ 0.25

Variant | enrichment ratio
KKYT | ≤ 0.25
FTCY | ≤ 0.25
NDAT | ≤ 0.25
PQFP | ≤ 0.25
GPRP | ≤ 0.25
WIRI | ≤ 0.25
TNAP | ≤ 0.25
LAFD | ≤ 0.25
RIMH | ≤ 0.25
TVVA | ≤ 0.25
WKAV | ≤ 0.25
LRCW | ≤ 0.25
IVYG | ≤ 0.25
PQRF | ≤ 0.25
WPPH | ≤ 0.25
QPHG | ≤ 0.25
QCPQ | ≤ 0.25
VQVS | ≤ 0.25
YREN | 4.52
FAYG | ≤ 0.25
FFYD | ≤ 0.25
HRLQ | ≤ 0.25
LKHQ | ≤ 0.25
NVRF | ≤ 0.25

Variant | enrichment ratio
TIWD | ≤ 0.25
YPIG | ≤ 0.25
QPNI | ≤ 0.25
EHQN | ≤ 0.25
ARVP | ≤ 0.25
PQSV | ≤ 0.25
TLDF | ≤ 0.25
LRPY | ≤ 0.25
HYNH | ≤ 0.25
VKGH | ≤ 0.25
RQKW | ≤ 0.25
NQWQ | ≤ 0.25
FPTQ | ≤ 0.25
HASG | ≤ 0.25
DSNH | ≤ 0.25
SFCF | ≤ 0.25
GLRH | ≤ 0.25
ILVP | ≤ 0.25
VSVY | 0.301
HGLD | ≤ 0.25
HFWA | ≤ 0.25
GYND | ≤ 0.25
MLMA | ≤ 0.25
YGPG | ≤ 0.25

Variant | enrichment ratio
SAIP | ≤ 0.25
QQFN | 5.64
RNGC | ≤ 0.25
HRMD | ≤ 0.25
VCYG | ≤ 0.25
DYMI | ≤ 0.25
NGTD | ≤ 0.25
GHCD | ≤ 0.25
MCHQ | ≤ 0.25
HPSF | ≤ 0.25
QLTF | ≤ 0.25
LNRG | ≤ 0.25
TMIV | ≤ 0.25
AFQG | ≤ 0.25
RQVM | ≤ 0.25
SHCS | 1.13
DNGK | ≤ 0.25
TWTI | ≤ 0.25
SSEH | ≤ 0.25
DFIV | ≤ 0.25
TDMW | ≤ 0.25
GFQI | ≤ 0.25
RGVG | ≤ 0.25
FHDG | ≤ 0.25

Variant | enrichment ratio
EAWH | ≤ 0.25
PYLI | ≤ 0.25
AETM | ≤ 0.25
GSVC | ≤ 0.25
HACI | ≤ 0.25
HWAI | ≤ 0.25
LDRQ | ≤ 0.25
DGWQ | ≤ 0.25
VWGV | ≤ 0.25
FRWA | ≤ 0.25
APYI | ≤ 0.25
LKIC | ≤ 0.25
YNAA | ≤ 0.25
QDDM | ≤ 0.25
LPFT | ≤ 0.25
FDNV | ≤ 0.25
MKLQ | ≤ 0.25
SDME | ≤ 0.25
INNS | ≤ 0.25
PFKF | ≤ 0.25
RMAQ | ≤ 0.25
HWMA | ≤ 0.25
LEDP | ≤ 0.25
FQEF | ≤ 0.25

Variant | enrichment ratio
PFNH | ≤ 0.25
LGMF | ≤ 0.25
YNIM | ≤ 0.25
FMHL | ≤ 0.25
TKIS | 4.17
SAHK | ≤ 0.25
KRDF | ≤ 0.25
PQVH | ≤ 0.25
VHCE | ≤ 0.25
WNEY | ≤ 0.25
WFTK | ≤ 0.25
QTHS | ≤ 0.25
FMYD | ≤ 0.25
MDPI | ≤ 0.25
VPVQ | ≤ 0.25
VEES | ≤ 0.25
HVFW | ≤ 0.25
NSAK | ≤ 0.25

Reference: a collection of fitness landscapes (doi:10.1126/science.1257360)
